Measurements taken from patent publication US11873290B2, “Pyridazinone compounds and uses thereof” (Edgewise Therapeutics, Inc., priority 2018, dated 2024).
At least one structure is not confirmed: it was looked up by name or label, or the drawing left a doubt.

target: skeletal myofibrils (myosin ATPase activity); experiment: Skeletal Myofibril ATPase Assay; type: biochemical; details: PK-LDH coupled, absorbance at 340 nm
Description: Overview: Myosin ATPase activity is assessed by using a coupled reaction system, in which ADP generated by the myosin ATPase function is coupled to the disappearance of NADH through the pyruvate kinase/lactate dehydrogenase (PK-LDH) system. Myosin ATPase activity produces ADP, which is used as a substrate for PK to produce pyruvate and regenerate ATP. The pyruvate is then used as a substrate by LDH to oxidize NADH to NAD+. The rate of the reaction is monitored through the time-dependent disappearance of NADH using absorbance at 340 nm. Inhibition of ATPase activity by the assayed compounds is indicated by a reduced rate of NADH loss, relative to vehicle-treated controls, over the experimental time window. To assess the selectivity of the assayed compounds for skeletal myofibrils, the compounds are counter-screened in cardiac myofibrils.
Materials: The following stock solutions and reagents were used in the Skeletal Myofibril ATPase Assay:
Stock Solutions of pCa buffer. Combine PIPES, CaCl2, and EGTA solutions with 70 mL of water. Adjust pH to 7.0 and bring final volume to 100 mL.
Skeletal Myofibril ATPase Assay Procedure: BSA, ATP, NADH, PEP, and DTT solutions were thawed at room temperature, then transferred to ice. Pellet-frozen myofibrils (approximately twice the required volume) were transferred into a sufficiently large tube and capped. Myofibrils were thawed by rolling in a water bath for approximately 15 min at room temperature and cooled on ice. Buffers A and B were prepared by adjusting volumes as necessary for required number of wells and stored on ice. 0.5 μL of the compounds to be assayed were added into wells of a 384-well plate. Buffers A and B were mixed by inversion immediately prior to use, then 25 μL of each was dispensed using a Multidrop dispenser (Buffer A first, then Buffer B). The absorbance within the wells was measured at 340 nm, using a kinetic protocol in which the wells are read every 1.5-2 min for 1 h. The reaction rate was qualitatively assessed by subtracting the minimum absorbance value from the maximum value for each well, using either the SoftMax Pro plate reader software or a spreadsheet program such as Excel. Using GraphPad Prism 8.0, the data was normalized, with 100% activity defined as the absorbance change in the 1% DMSO vehicle wells and 0% assigned to no change in absorbance over the course of the experiment. The normalized data were fit to a variable-slope four-parameter logistic model, constraining the bottom to be 0 or greater. Compounds of Table 1 to 4 were tested and results of the assay appear in Table 5 herein. A=IC50 is less than or equal to 10 μM; B=IC50 is greater than 10 μM and less than 100 μM; C=IC50 is greater than 100 μM; […].

Compound	IC50 [µM]
Cc1cc(Cn2nc(-c3cnc(OCC(F)(F)F)nc3)ccc2=O)no1 [Compound 20, 2-((5-methylisoxazol-3-yl)methyl)-6-(2-(2,2,2-trifluoroethoxy)pyrimidin-5-yl)pyridazin-3(2H)-one]	10 to 100
O=c1ccc(-c2cnc(OCC(F)(F)F)nc2)nn1Cc1ccc(OC(F)F)nc1 [Compound 5, 2-((6-(difluoromethoxy)pyridin-3-yl)methyl)-6-(2-(2,2,2-trifluoroethoxy)pyrimidin-5-yl)pyridazin-3(2H)-one]	< 10
CCCOc1ncc(-c2ccc(=O)n(Cc3cncc(F)c3)n2)cn1 [Compound 67, 2-((5-f1uoropyridin-3-yl)methyl)-6-(2-propoxypyrimidin-5-yl)pyridazine-3(2H)-one]	< 10
O=c1ccc(-c2cnc(OCC3(F)COC3)nc2)nn1Cc1nc(-c2ccc(F)cc2)no1 [Compound 90, 6-[2-[(3-fluorooxetan-3-yl)methoxy]pyrimidin-5-yl]-2-[[3-(4-fluorophenyl)-1,2,4-oxadiazol-5-yl]methyl]-2,3-dihydropyridazin-3-one]	< 10
Cc1ccc(Cn2nc(-c3cnc(OCC(F)(F)F)nc3)ccc2=O)cn1 [Compound 7, 2-((6-methylpyridin-3-yl)methyl)-6-(2-(2,2,2-trifluoroethoxy)pyrimidin-5-yl)pyridazin-3(2H)-one]	< 10
Cn1ccc(Cn2nc(-c3ccc(OC(F)F)cc3)ccc2=O)n1 [Compound 221, 6-(4-(difluoromethoxy)phenyl)-2-((1-methyl-1H-pyrazol-3-yl)methyl)pyridazin-3(2H)-one]	10 to 100
O=c1ccc(-c2cnc(OCC(F)(F)F)nc2)nn1Cc1nc2ccccc2o1 [Compound 12, 2-(benzo[d]oxazol-2-ylmethyl)-6-(2-(2,2,2-trifluoroethoxy)pyrimidin-5-yl)pyridazin-3(2H)-one]	< 10
O=c1ccc(-c2ccc(OC(F)F)nc2)nn1Cc1cn2ccccc2n1 [Compound 15, 6-(6-(difluoromethoxy)pyridin-3-yl)-2-(imidazo[1,2-a]pyridin-2-ylmethyl)pyridazin-3(2H)-one]	> 100
O=c1ccc(-c2cnc(OCC(F)(F)F)nc2)nn1Cc1ccc(C(F)(F)F)nc1 [Compound 8, 6-(2-(2,2,2-trifluoroethoxy)pyrimidin-5-yl)-2-((6-(trifluoromethyl)pyridin-3-yl)methyl)pyridazin-3(2H)-one]	< 10
Cc1cc(Cn2nc(-c3cnc(OCC(F)(F)F)nc3)ccc2=O)on1 [Compound 13, 2-((3-methylisoxazol-5-yl)methyl)-6-(2-(2,2,2-trifluoroethoxy)pyrimidin-5-yl)pyridazin-3(2H)-one]	< 10
O=c1ccc(-c2ccc(OC(F)F)nc2)nn1Cn1nnnc1-c1ccccc1 [Compound 19, 6-(6-(difluoromethoxy)pyridin-3-yl)-2-((5-phenyl-1H-tetrazol-1-yl)methyl)pyridazin-3(2H)-one]	> 100
O=c1ccc(-c2ccc(OC(F)F)nc2)nn1Cc1ncoc1-c1ccccc1 [Compound 16, 6-(6-(difluoromethoxy)pyridin-3-yl)-2-((5-phenyloxazol-4-yl)methyl)pyridazin-3(2H)-one]	> 100
Cc1cc(Cn2nc(-c3ccc(OC(F)F)nc3)ccc2=O)on1 [Compound 14, 6-(6-(difluoromethoxy)pyridin-3-yl)-2-((3-methylisoxazol-5-yl)methyl)pyridazin-3(2H)-one]	< 10
O=c1ccc(-c2cnc(OCC(F)(F)F)nc2)nn1Cc1ccc(Cl)nc1 [Compound 3, 2-((6-chloropyridin-3-yl)methyl)-6-(2-(2,2,2-trifluoroethoxy)pyrimidin-5-yl)pyridazin-3(2H)-one]	< 10
O=c1ccc(-c2ccc(OC(F)F)cc2)nn1Cc1ccn(-c2ccccc2)n1 [Compound 231, 6-(4-(difluoromethoxy)phenyl)-2-((1-phenyl-1H-pyrazol-3-yl)methyl)pyridazin-3(2H)-one]	> 100
O=c1ccc(-c2ccc(OC(F)F)cc2)nn1Cc1nnc(-c2ccccc2)[nH]1 [Compound 233, 6-(4-(difluoromethoxy)phenyl)-2-((5-phenyl-4H-1,2,4-triazol-3-yl)methyl)pyridazin-3(2H)-one]	> 100
O=c1ccc(-c2ccc(OC(F)F)nc2)nn1Cc1nncn1-c1ccccc1 [Compound 18, 6-(6-(difluoromethoxy)pyridin-3-yl)-2-((4-phenyl-4H-1,2,4-triazol-3-yl)methyl)pyridazin-3(2H)-one]	> 100
O=c1ccc(-c2cnc(OCC(F)(F)F)nc2)nn1Cc1nc(-c2ccccc2)no1 [Compound 89, 2-((3-phenyl-1,2,4-oxadiazol-5-yl)methyl)-6-(2-(2,2,2-trifluoroethoxy)pyrimidin-5-yl)pyridazine-3(2H)-one]	< 10
O=c1ccc(-c2cnc(OCC(F)(F)F)nc2)nn1Cc1cccnc1 [Compound 4, 2-(pyridin-3-ylmethyl)-6-(2-(2,2,2-trifluoroethoxy)pyrimidin-5-yl)pyridazin-3(2H)-one]	< 10
O=c1ccc(-c2cnc(OCC(F)(F)F)nc2)nn1Cc1nc2cc(Cl)ccc2o1 [Compound 11, 2-((5-chlorobenzo[d]oxazol-2-yl)methyl)-6-(2-(2,2,2-trifluoroethoxy)pyrimidin-5-yl)pyridazin-3(2H)-one]	< 10
